According to PubChem BioAssay AID485281 (National Center for Advancing Translational Sciences (NCATS), 2010):
Screen size: about 350,000 compounds; about 260 (0.074%) were called active. The shares of active, inactive and inconclusive entries below differ from those in the screen. Calls follow the shape of the dose curve; as a rule, active = well fitted inhibition curve with a large enough effect; inconclusive = small, poorly fitted or top-dose-only effect; inactive = no such curve, though single readings can be large or run the other way. Potencies of inconclusive entries are doubtful fits and often do not repeat.

molecular target: Ferritin light chain (Equus caballus) (UniProt P02791); experiment: qHTS Assay for Identification of Novel General Anesthetics; settings: apoferritin/1-aminoanthracene competitive binding, fluorescence; activity change, negative = displacement: at 77.5 µM (top of the series); also: nearly all actives have a fitted effect of over 20% in size
Chain of UniProt P02791 (P02791 whole entry, looked up): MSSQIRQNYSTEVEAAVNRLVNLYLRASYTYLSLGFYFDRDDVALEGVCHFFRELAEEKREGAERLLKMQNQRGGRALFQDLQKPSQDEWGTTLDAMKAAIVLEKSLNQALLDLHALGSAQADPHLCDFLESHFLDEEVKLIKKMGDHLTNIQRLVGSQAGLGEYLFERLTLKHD
Source text: Source: NIH Chemical Genomics Center [NCGC]
Assay Submitter: Roderic Eckenhoff, University of Pennsylvania
Screening Center PI: Christopher P. Austin, NIH
Probe Development: NIH Chemical Genomics Center [NCGC]
Anesthetic development has remained a largely empirical process. There are growing concerns about the cognitive effects of known general anesthetics and acceleration of the onset of neurodegenerative disease. The compounds' toxicity and multiple specific binding targets in the mammalian brain [4] has made them less attractive as drug leads. In this assay, a GABAergic mimetic model system, apoferritin and a profluorescent 1-aminoanthracene ligand (1-AMA), was used to construct a competitive binding assay for identification of novel general anesthetics. The assay was validated for 1-AMA using other known anesthetics, such as isoflurane (CID:3763) and propofol (CID: 4943), [6].
[1] S.L. Bianchi, T. Tran, C. Liu, S. Lin, Y. Li, J.M. Keller, R.G. Eckenhoff, and M.F. Eckenhoff, Brain and behavior changes in 12-month-old Tg2576 and nontransgenic mice exposed to anesthetics. Neurobiol Aging 29 (2008) 1002-10.
[2] Z. Xie, Y. Dong, U. Maeda, R.D. Moir, W. Xia, D.J. Culley, G. Crosby, and R.E. Tanzi, The inhalation anesthetic isoflurane induces a vicious cycle of apoptosis and amyloid beta-protein accumulation. J Neurosci 27 (2007) 1247-54.
[3] P. Honegger, and J.M. Matthieu, Selective toxicity of the general anesthetic propofol for GABAergic neurons in rat brain cell cultures.
[4] M.F. Eckenhoff, K. Chan, and R.G. Eckenhoff, Multiple specific binding targets for inhaled anesthetics in the mammalian brain. J Pharmacol Exp Ther 300 (2002) 172-9.
[5] C.A. Butts, J. Xi, G. Brannigan, A.A. Saad, S.P. Venkatachalan, R.A. Pearce, M.L. Klein, R.G. Eckenhoff, and I.J. Dmochowski, Identification of a fluorescent general anesthetic, 1-aminoanthracene. Proc Natl Acad Sci U S A 106 (2009) 6501-6.
[6] W.A. Lea, J. Xi, A. Jadhav, L. Lu, C.P. Austin, A. Simeonov, and R.G. Eckenhoff, A high-throughput approach for identification of novel general anesthetics. PLoS One 4 (2009) e7150.
Three uL of reagents (free 1-AMA (50% saturated solution of 1-aminoanthracene
in PBS) in columns 3, 4 as negative control and 1-AMA/apoferritin mixture (10 uM horse-spleen apoferritin in 50% saturated 1-aminoanthracene in PBS) in columns 1, 2, 5-48) was dispensed into 1536-well Greiner black assay plates. Compounds (23 nL) were transferred via Kalypsys pintool equipped with 1,536-pin array (10 nL slotted pins, V&P Scientific, San Diego, CA). Titration of the positive control, propofol, were delivered via pin transfer from separate control plates to the 2nd column of each assay plate. The starting concentration of the control, dissolved in DMSO, was at 160 mM, followed by two-fold dilution points in duplicate, for a total of 16 concentrations. The plates were incubated for 10 min at room temperature, and then read on an EnVision HTS multilabel reader (Perkin-Elmer, Waltham, MA) (end point read, 3 min/plate) using Fura2 BFP excitation filter (380 nm, bandwidth 10 nm) and fluorescein emission filter (535 nm, bandwidth 25 nm) set. A LANCE/DELFIA dichroic mirror with a cutoff wavelength at 400 nm was used to maximize signal accuracy and strength. Vehicle-only plates, with DMSO being pin-transferred to the entire column 5-48 compound area, were inserted uniformly at the beginning and the end of each library in order to monitor for and record any shifts in the background. Activity was computed as the normalized fluorescence response relative to free 1-AMA and 1-AMA/apoferritin complex values. Concentration-effect relationships were derived by using curve fitting algorithms developed in-house (http://ncgc.nih.gov/pub/openhts/). A four parameter Hill equation was fitted to the concentration-response data by minimizing the residual error between the modeled and observed responses.
% is scaled to controls: 0 for no effect and ±100 for the full control effect; potency is read from the fitted curve at half-maximal effect; tags tell the direction and shape of the fitted curve.

Row | Compound | Potency | activity change, negative = displacement
1 | CCC1=C(c2ccc(C)cc2)S(=O)(=O)N=C1N1CCC(C(=O)NCCc2ccc(Cl)cc2)CC1 | inconclusive: 12.6 µM [inhibitor, partial curve] | 
2 | O=C(CC1N=C2c3ccccc3N=C(SCc3cccc(Cl)c3)N2C1=O)NCCc1ccccc1 (stereo not drawn) | inconclusive: 11.2 µM [inhibitor, full curve, poor fit] | 
3 | C1=CC2CCC1ON2c1ccccc1 (stereo not drawn) | inconclusive: 35.5 µM [inhibitor, partial curve] | 
4 | Cc1ccc(N2CC(C(=O)NCC3CCCO3)CC2=O)cc1Cl (stereo not drawn) |  | inactive: -8.14%
5 | Cc1ccc(C(=O)NCc2ccccc2)cc1NC(=O)c1nsc2ccccc12 |  | inactive: -8.36%
6 | CC(=O)c1ccc(N2CCN(C(=O)COc3ccc4c(c3)CCC4)CC2)cc1 | inconclusive: 35.5 µM [inhibitor, single point] | 
7 | c1ccc(Sc2cnc3ccccc3n2)cc1 | inconclusive: 22.4 µM [inhibitor, partial curve] | 
8 | C=C(C)COc1ccc(-c2n[nH]c(C)c2-c2ccccc2)c(O)c1 | inconclusive: 28.2 µM [inhibitor, single point] | 
9 | N#CCCN1CCN(C(=S)c2ccc(-c3ccc(Cl)cc3)o2)CC1 | inconclusive: 25.1 µM [inhibitor, partial curve] | 
10 | O=C(OCCNc1ncc(C(F)(F)F)cc1Cl)c1ccc(S(=O)(=O)N2CCOCC2)cc1 | inconclusive: 35.5 µM [inhibitor, partial curve] | 
11 | O=C(CSc1nnc(-c2ccc(Cl)cc2Cl)n1C1CCCCC1)N1CCCC1 | inconclusive: 25.1 µM [inhibitor, partial curve] | 
12 | O=C1N=c2ccc(Br)cc2=C1c1sc(=S)n(NS(=O)(=O)c2ccccc2)c1O |  | inactive: -16.7%
13 | COCC(C)n1c(C)cc(C(=O)COC(=O)c2ccc3c(c2)NC(=O)CS3)c1C (stereo not drawn) | inconclusive: 35.5 µM [inhibitor, single point] | 
14 | Cc1ccsc1/C=N/NC(=O)CSCc1ccc(Cl)cc1 | inconclusive: 31.6 µM [inhibitor, partial curve] | 
15 | Cc1cc(=O)oc2cc(OCC(=O)N3CCc4ccccc4C3)ccc12 | inconclusive: 44.7 µM [inhibitor, partial curve] | 
16 | CC(=O)Nc1ccc(S(=O)(=O)NC2=C(N3CCN(Cc4ccccc4)CC3)C(=O)c3ccccc3C2=O)cc1 | inconclusive: 12.6 µM [inhibitor, partial curve] | 
17 | COc1ccc(-c2c(C)nc(N)nc2-c2ccc(OCc3ccc(C)cc3)cc2O)cc1OC | inconclusive: 10 µM [inhibitor, full curve] | 
18 | O=C(Nc1nccs1)c1ccc(COc2ccccc2)o1 |  | inactive: -7.79%
19 | CCC(CC)C(=O)Nc1cc(Cl)ccc1C | inconclusive: 28.2 µM [inhibitor, partial curve] | 
20 | CCN(CC)S(=O)(=O)c1cccc(C(=O)OCC(=O)c2ccc3c(c2)NC(=O)CO3)c1 | inconclusive: 25.1 µM [inhibitor, partial curve] | 
21 | CC1CCCC(C)N1Cc1cn2ccccc2n1 (stereo not drawn) |  | inactive: -5.89%
22 | C=C(C)Cn1c(SCC(=O)c2ccccc2)nc2sc3c(c2c1=O)CCCC3 | inconclusive: 5.62 µM [inhibitor, single point] | 
23 | O=C(COc1ccc(Cl)cc1)OCC(=O)N1CCCCCC1 | inconclusive: 31.6 µM [inhibitor, partial curve] | 

Row | Compound | Potency | activity change, negative = displacement
24 | CC(C)Sc1nnc([C@H](Cc2c[nH]c3ccccc23)NC(=O)OC(C)(C)C)o1 | inconclusive: 22.4 µM [inhibitor, partial curve] | 
25 | CN(C)CCCN(C(=O)c1ccc(S(=O)(=O)N2CCc3ccccc32)cc1)c1nc2ccc(F)cc2s1 | inconclusive: 25.1 µM [inhibitor, single point] | 
26 | Cc1cccc(OCC(=O)N/N=C\C=C\c2ccc3c(c2)OCO3)c1C | inconclusive: 20 µM [inhibitor, partial curve] | 
27 | COc1ccccc1NC(=O)c1cc2n(n1)C(C(F)(F)F)CC(c1ccc3c(c1)OCO3)N2 (stereo not drawn) | inconclusive: 12.6 µM [inhibitor, partial curve] | 
28 | COc1ccccc1CC(=O)NCCCc1ccccc1 | inconclusive: 56.2 µM [inhibitor, single point] | 
29 | COc1ccccc1N1CCN(C(=O)CCNS(=O)(=O)c2ccc(Br)s2)CC1 | inconclusive: 35.5 µM [inhibitor, partial curve] | 
30 | Cc1cc(/C=N/NC(=O)c2c(Br)cnn2C)c(C)n1-c1cccc(Br)c1 | inconclusive: 28.2 µM [inhibitor, partial curve, poor fit] | 
31 | O=C(NCCC1=CCCCC1)c1cnc2n(c1=O)CCS2 |  | inactive: -4.55%
32 | Cc1ccc(N2C(=O)C3C(C2=O)C2C=CC3C23CC3)c([N+](=O)[O-])c1 (stereo not drawn) | inconclusive: 31.6 µM [inhibitor, partial curve] | 
33 | CC1CCCC(C)N1/N=C/C=C/c1ccccc1[N+](=O)[O-] (stereo not drawn) | inconclusive: 35.5 µM [inhibitor, partial curve] | 
34 | Cc1ccc(NC(=O)CN(C)C2CCCCC2)cc1Cl | inconclusive: 15.8 µM [inhibitor, partial curve] | 
35 | CO[C@H]1C[C@@H]2CC[C@@H](C)[C@@](O)(O2)C(=O)C(=O)N2CCCC[C@H]2C(=O)O[C@H]([C@H](C)C[C@@H]2CC[C@@H](O)[C@H](OC)C2)CC(=O)[C@H](C)C=C(C)[C@@H](O)[C@@H](OC)C(=O)[C@H](C)C[C@H](C)C=CC=CC=C1C | inconclusive: 15.8 µM [inhibitor, partial curve] | 
36 | COc1cc(CNc2ccc(N3CCCC3)cc2)cc(Cl)c1OC | inconclusive: 25.1 µM [inhibitor, partial curve] | 
37 | Cc1cccc(CSc2nnc(CCCCCN)o2)c1 | inconclusive: 31.6 µM [inhibitor, partial curve] | 
38 | CCCNC(=O)C1CCN(c2nc(C)cc(C)n2)CC1 |  | inactive: -1.61%
39 | CCOc1ncccc1C(=O)OCC(=O)c1cccc(Br)c1 | inconclusive: 28.2 µM [inhibitor, partial curve] | 
40 | Cn1nc(-c2ccccc2F)c2cc(C(=O)NCc3cccc(Cl)c3)sc21 |  | inactive: -0.0605%
41 | O=C1O/C(=C/c2ccccc2)c2ccccc21 | inconclusive: 25.1 µM [inhibitor, partial curve] | 
42 | Cc1nnc(NC(=O)CSc2cn(CCNC(=O)c3ccccc3)c3ccccc23)s1 |  | inactive: -13.5%
43 | CC(NC(=O)Nc1ccccc1F)C(C)(C)C (stereo not drawn) | inconclusive: 50.1 µM [inhibitor, single point] | 
44 | N#C/C(=C\c1ccc(N2CCOCC2)o1)C(=O)NCCc1ccccc1 | inconclusive: 35.5 µM [inhibitor, partial curve] | 
45 | O=c1cc2c(nn1Cc1ccc(F)cc1)-c1ccccc1CC2 | inconclusive: 31.6 µM [inhibitor, partial curve] | 
46 | NNc1nc2ccc(Cl)cc2s1 |  | inactive: -19.3%

Row | Compound | Potency | activity change, negative = displacement
47 | Nc1cccnc1Sc1cccc(Cl)c1 | inconclusive: 50.1 µM [inhibitor, single point] | 
48 | Cc1ccc2nc(NC(=O)c3ccc4c(c3)OCO4)sc2c1 |  | inactive: -10.8%
49 | CC(/C=N/Nc1nc(C)cc(C)n1)=C\c1ccc(C(C)C)cc1 | inconclusive: 25.1 µM [inhibitor, partial curve] | 
50 | COC(=O)c1sccc1NC(=O)CSc1cccc(Cl)c1Cl | inconclusive: 3.98 µM [inhibitor, single point] | 
51 | COC(=O)CCC(=O)OC1(C)C(=O)C=C2C=C(C3CC3)N(CC(C)C)C=C2C1=O (stereo not drawn) |  | inactive: -0.899%
52 | CCOc1ccc2nc(N3C(=O)/C(=C/c4ccccc4)NC3=S)sc2c1 |  | inactive: 2.06%
53 | Clc1ccc2scc(CN3CCCCC3)c2c1 | inconclusive: 14.1 µM [inhibitor, single point] | 
54 | Nc1nc(Nc2cccc(C(F)(F)F)c2)nc(C(F)(F)F)n1 | inconclusive: 28.2 µM [inhibitor, partial curve] | 
55 | CCSc1nccc(-c2nn(-c3ccc(C)cc3)ccc2=O)n1 | inconclusive: 39.8 µM [inhibitor, partial curve] | 
56 | COc1ccc(CNC(=O)C2CCCN(S(=O)(=O)N3CC(C)CC(C)C3)C2)c(OC)c1 (stereo not drawn) |  | inactive: -2.13%
57 | CCc1nc(SCC(=O)Nc2cc(C)ccc2OC)c2c(C)c(C)sc2n1 |  | inactive: -12.2%
58 | Cc1c(Br)cc(-c2nnco2)cc1Br | inconclusive: 7.08 µM [inhibitor, partial curve] | 
59 | O=C(/C=C/c1ccc(Cl)cc1Cl)NC(=S)Nc1ccc(CN2CCOCC2)cc1 |  | inactive: -16.1%
60 | O=C(CS(=O)CC(=O)NC12CC3CC(CC(C3)C1)C2)Nc1ccc(F)cc1 (stereo not drawn) | inconclusive: 25.1 µM [inhibitor, partial curve] | 
61 | Cc1ncsc1CCOC(=O)C1C2CC3CC(C2)CC1C3 (stereo not drawn) | inconclusive: 31.6 µM [inhibitor, partial curve] | 
62 | CCc1ccc(NS(=O)(=O)c2cc(OC)ccc2OC)cc1 | inconclusive: 28.2 µM [inhibitor, single point] | 
63 | COc1cccc(Oc2cn[nH]c2-c2ccc(OC)cc2O)c1 | inconclusive: 28.2 µM [inhibitor, partial curve] | 
64 | O=C(CSc1nc2ccccc2[nH]1)NCc1ccc(F)cc1 | inconclusive: 28.2 µM [inhibitor, single point] | 
65 | C[C@@H](NC(=O)OC(C)(C)C)C(=O)NCC1CCC(C(=O)N[C@@H](Cc2ccccc2)C(=O)O)CC1 (stereo partly drawn) |  | inactive: -1.22%
66 | Cc1ccc(-c2cc(-c3ccccc3[N+](=O)[O-])[nH]n2)c(O)c1 | inconclusive: 35.5 µM [inhibitor, partial curve] | 
67 | Cc1cc2ncn(/N=C/c3cccnc3)c2cc1C |  | inactive: -15.2%
68 | COc1ccc(C(=O)/C=C2/C(=O)Nc3ccccc32)cc1OC |  | inactive: -11.3%
